Reference: the supplement of paper PMC12632987
Whole data set: some 2,300 sequences, median “median log2 fold change of GCK-ALFA target abundance (FLAG IP / Myc IP barcode read proportion)” near 0.095, cut for the lowest 2% near -0.47. The list shows a part of the results.

B1: LC3A_45_1928 (protein)
chain: MYKATVDLLVPKELAEETYKLIKEKLAELQKKYGPDLKVDWETLEKSYEETKDEEEVYFEVEITHPDKQTALDAADELEEALQKATGGKVASMISIEEVP
B2: LC3A_3_1660 (protein)
chain: VEELIKETLEWLRKAGKSEEVLEAVREALEALAEKGYEEALRVFAELLRELEDLSDELLLDLALEVKELVETEDISEEEMTERIKELARVTRLEAEIEEL
B3: LC3A_28_968 (protein)
chain: MDIDEELEKALKEAKEAAEKGEPTVITIKVPGTTNEEDTEKIIEALEEIAEILKDIKGAAIIIDIEGKVKQENITKLANKAEEIEKKYPNITVIFALDEE
B4: LC3A_3_1606 (protein)
chain: SEELVERLLERLREAGFSEKVLEAAERALTALAERGFEEAAKTLTEELLKAKDLPEEILVDALEDILHIVETEDLDEEEVIELIKEEFRVAKLESEIEEL
B5: LC3A_free_8_2502 (protein)
chain: NRQKVVDTALKGLDELEEELVKKAKELGLSELDILELELEIGSVISEIISNSDASPEEILKTVREGLEEVIKLAKELSEELAKLAKEKSEEILKKLEELL
B6: LC3A_28_1297 (protein)
chain: SALKEELDKVLKEAEEAAKKGEAAVFTLKVPATADQEDIDYVIETMRKIAEKLKDVKGSAIIIDVEAGVKQEFIDKLADEAEKIEEKYPNVTVIIALEEE
B7: LC3A_28_1245 (protein)
chain: SEVEEQIEKAKAEVEAAVAAGEEALVTLTVTENTTEEEVEKIIEAMEEIAKLAETLPALSIIIDVEKGVKEEHINKLADAAEEIEKKYPNVTVIIALEEE
B8: LC3A_3_1779 (protein)
chain: MEERIEELLKRLREAGKSEETLEAFREAAELLKEKGYEKALETLLEEAEKLIDVPDELFLDFLKEVLDLLKNEDLSEEELTEEIKRLARLTLLESEIEEL
B9: LC3A_28_722 (protein)
chain: MELEENIEKALKEAKEAAEKGEEAVIEIKVPGDATEEDIEKVKETLEEIAEITKDLKRTHIIIDVDGGVKQEHIDKLADKAEEIEKKYPNVTVIIALDEE
B10: LC3A_28_838 (protein)
chain: ASGIKSAEELIAEAEAQAAAGEHVVVEIVVEGEVDEEVTDKVIEALEAVSAHVASLGGGTIVILFHKPVPQEHLKRITDKAEELEEKYPGVNIIIALPED
B11: LC3A_28_1146 (protein)
chain: SAGVEAAKAQIDADAEADKDEPEALLTATITSEATVEDAEAIMDHIEEVVEKLKDKEKIFVIVNFEEPVSQEVLDTVAEKGEEIEKKFPNVSVIIALPED
B12: LC3A_free_46_2335 (protein)
chain: YKVDVTIDLLAAPKEEIEKTVKKIVEGAKEIAEKYGGEIEVEIEFYKNEDGTYIARIDITVTVENKETAEKVAQDLSDMIDEIDEETGLVGMFSIDISEV
B13: LC3A_147_517 (protein)
chain: YLVEVEIDMLLKNSKELAEEIAKEIEERLKEKGYKVEVELEFEEDEDGTIFADITIKVEAETLEEAKEVANEILDIIDELLEKNKDKILGALISVSITKK
B14: LC3A_free_8_2497 (protein)
chain: SRQEIVDRLLELIDELEEELEEKAKELGLSELDILDITLELGSLKAEIISNSDEPLEVIREELEEGLEEIIELTEELSEELEELAEEGAEKILEELEELE
B15: LC3A_3_1595 (protein)
chain: MEELVEEALERLRAAGLSEAVLEAARELLEALAERGYEEAIKELTEQLLELKDAPEELLVDMLKELLEIVETEDLSEEEIIEKIKELARLAKNESEIEEL
B16: LC3A_28_990 (protein)
chain: SANQAAADAFLAAARAAAAAGEATTLVLPVSKDATQADIDYIVDALREAAEVLAGVPGASIIIDLEAGVAQEHIDKLADAAEEVEERYPNVTVVIALDED
B17: LC3A_147_445 (protein)
chain: VKVEVTIGVLMKNKPEVGDELVEKLRETAEAAGAEVEVEVEREKIDENTVYLLIKLTLTTETREAAEALANKVIDTVEEFAEKHKDEILGYIISVEISEA
B18: LC3A_28_819 (protein)
chain: SGAEETIEKVKKQAEEAKNSKEDVLIEVDVSGDITVEEAERLMEVVREEAKELAKKHKVYIVINFTEPVSQEVLDLISDKADEIEEEIPNVSVIIALPEE
B19: LC3A_59_2029 (protein)
chain: SAFFEAVAAEIRANKDDIEALARTILDGLEAVKDDPEALERLKAAIVATLVELGLLSRELAEELMEEAEEIVKTLEDREEALAAILEELRVLLNEEEIEE
B20: LC3A_3_1909 (protein)
chain: AEEKIEELRKLAKELGHSEEVIELAEKAAELLLSVGNEEGFELLKEAVKALASLSEEDQLAFLKDLLEELEKNKNDKEKQLEAAREFLRLAKNAAEIIEI
B21: LC3A_28_763 (protein)
chain: MSIEEEVEEAIKKAKEAKKEGKETVITIKVPAGATQEDVDIVIEGMEEIAEITKDMKRTTIIIDIEAGVPQENIDRLLDHGEEIEKKYPNVTVIFALDED
B22: LC3A_127_210 (protein)
chain: EKEELLKKGIELAEEALKAAQEIPKKGEEALKKAEELLKELIKVLAKLPELKEALEDAKQALEQAKEIPKLDEAAKEEAIEQIEMILEGIRIDLELALLK
B23: LC3A_28_1120 (protein)
chain: STAEEIIKKAREQVEAMIASGEEEVIEVEIPGSLSQEEVERVAKEVAKLVAEAAKKVKVNLVIDLDASVSQEKIDIIADIAEELEKAYPNVNVIIALEEK
B24: LC3A_147_461 (protein)
chain: KIYEVTLDVLVKNLTEEIKKFFEELAEEIKKKVPNAKVELKFEQDPENPNETLITLTVTVETKEDAEKILDIVDEKLDEFEKKFGDNIIASMISIEEIEE
B25: LC3A_28_1075 (protein)
chain: SEVEEENEKILKEAKEAREKGEPAVITIEIGEEDTEEDIEKKLETIREVAEILKDVKGAAIIIDLEGELALSRLDEVAELAEELEKKYPNLTVIIALDDE
B26: LC3A_147_451 (protein)
chain: KLYEITVDVLFKNDPELAEEVEEEIRAIAEKHGGEVEVEREEEQETPTTTLYYVRVTIKLEDREKALAAEDEISALLDRVAEEHPEKFLGSAISIEEIEV
B27: LC3A_3_1613 (protein)
chain: MEELIKENLERLKAAGFSEKVIEAARKVLEALAERGYEEAMETLTEKLLELKDVDEELIIETLEEILRKVEEEDLSEEEVIKVIEEEFRVARLESEIEEL
B28: LC3A_3_1356 (protein)
chain: MKELIEKALERLRKAGFSEEVLKAAREAFEALAEQGHEEGIERLTEALLKHKDAPEETLLRALENLLRELKENPNLTQEEVEELIKLVDSELAIEELEEE
B29: LC3A_3_1846 (protein)
chain: MEEILERALALLEELGRSPEVRAAARALLEALRERGYEEAAEVLLEKLEELEDVSDEILLAMLEELLRLVTEERLSEEETIEAIEELARTALNESEIEEL

target: MAP1LC3A, Q9H492; test: median log2 fold change of GCK-ALFA target abundance (FLAG IP / Myc IP barcode read proportion) (log2 ratio); each designed protein is fused to an ALFA-tag nanobody in HEK293 cells to bring the named protein to FLAG-tagged glucokinase (GCK); Myc marks an untargeted standard; higher = target protein stabilised (more abundant); conditions: target protein: 3xFLAG-MCP-GCK-ALFA reporter; HEK293 landing pad (RPLP)
Procedure, shortened: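 An ALFA-nanobody-fused binder library was recombined into HEK293 landing-pad cells and induced with 2 μg mL^−1 doxycycline. Cells were transfected with a plasmid expressing a FLAG-tagged target and a Myc-tagged standard. After 48 h, lysates underwent anti-FLAG and anti-Myc immunoprecipitation, and circular RNA barcodes were reverse transcribed, amplified and sequenced. Target abundance is the per-binder median log2 ratio of FLAG to Myc barcode read proportions. Barcodes needed ≥10^−7 proportion in both replicates, binders ≥3 barcodes per replicate, and a 10^−6 pseudocount was added; the two replicates were pooled.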

Binder	median log2 fold change
B1	0.089
B2	0.138
B3	-0.284
B4	0.167
B5	-0.151
B6	0.272
B7	0.125
B8	0.192
B9	0.0242
B10	0.13
B11	-0.0827
B12	0.0788
B13	-0.778
B14	-0.679
B15	0.219
B16	0.218
B17	-0.265
B18	-0.287
B19	0.204
B20	0.329
B21	-0.0857
B22	0.238
B23	-0.138
B24	-0.0762
B25	-0.0901
B26	-0.235
B27	0.22
B28	0.194
B29	0.152
